The record followed here is the BET-seq Pho4 binding data (Le et al. 2018).

The list shows a part of the results. Values were computed here from the reads of four pooled replicates and scatter widely.

For the experiment, the target named is T1, Pho4 (S. cerevisiae) (UniProt P07270).
T1 sequence: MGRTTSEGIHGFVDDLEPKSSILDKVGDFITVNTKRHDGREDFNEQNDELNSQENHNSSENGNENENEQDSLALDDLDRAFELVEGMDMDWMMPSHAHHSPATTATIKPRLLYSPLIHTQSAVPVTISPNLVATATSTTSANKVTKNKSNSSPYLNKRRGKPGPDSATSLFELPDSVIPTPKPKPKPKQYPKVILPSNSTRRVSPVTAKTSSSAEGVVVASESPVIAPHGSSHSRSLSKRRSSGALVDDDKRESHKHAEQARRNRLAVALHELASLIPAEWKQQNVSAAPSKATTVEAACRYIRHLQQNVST
The experiment is described as follows: relative binding free energy (BET-seq); higher = weaker binding. The note with it: reference: library average.
For the sequence GTTTACACGTGGCGCT, the “relative binding free energy” value worked out at 0.17 kcal/mol.

In the case of TCCGTCACGTGGCGGG, the “relative binding free energy” value was 0.2 kcal/mol.

As for GTTCTCACGTGTCTGT, the “relative binding free energy” value worked out at 0.23 kcal/mol.

In the case of CTGTCCACGTGAGTTT, the “relative binding free energy” value was found to be 0.44 kcal/mol.

With AATGACACGTGTGGAT, the “relative binding free energy” value came out at 0.01 kcal/mol.

Turning to CTGTACACGTGAGTTT, the “relative binding free energy” value was determined as 0.28 kcal/mol.

As to GTCTGCACGTGCAGGT, the “relative binding free energy” value amounted to 0.22 kcal/mol.

With GGGATCACGTGAAGAT, the “relative binding free energy” value was determined as 0.48 kcal/mol.

With AGGCACACGTGAAGTG, the “relative binding free energy” value was 0.33 kcal/mol.

For TAAATCACGTGGGTAA, the “relative binding free energy” value was -0.02 kcal/mol.

Consider TGACTCACGTGTGTCG, for which the “relative binding free energy” value was 0.23 kcal/mol.

As to TTAGGCACGTGCAGTG, the “relative binding free energy” value was -0.09 kcal/mol.

Consider GCGGACACGTGGCTGG, for which the “relative binding free energy” value is 0.07 kcal/mol.

Consider GCCGGCACGTGGGCGT, for which the “relative binding free energy” value is -0.2 kcal/mol.

Consider TTGGACACGTGACTGT, for which the “relative binding free energy” value was 0.11 kcal/mol.

With GTTTACACGTGGGGGT, the “relative binding free energy” value is -0.06 kcal/mol.

Take TGTGGCACGTGATCGG: the “relative binding free energy” value was -0.05 kcal/mol.

Turning to AAGAGCACGTGTGGGC, the “relative binding free energy” value was -0.06 kcal/mol.

As for TTTGACACGTGGATTC, the “relative binding free energy” value worked out at 0.07 kcal/mol.

Consider GCTGTCACGTGGTTGT, for which the “relative binding free energy” value was determined as 0.11 kcal/mol.

On to GTTATCACGTGCTGAG, for which the “relative binding free energy” value came out at 0.2 kcal/mol.

As to TTTGGCACGTGGATAC, the “relative binding free energy” value is -0.11 kcal/mol.

Take TAGAGCACGTGAAGGA: the “relative binding free energy” value was 0.12 kcal/mol.

As to GTGATCACGTGTTGGT, the “relative binding free energy” value stood at 0.15 kcal/mol.

GGCGACACGTGGGTAT: the “relative binding free energy” value is -0.09 kcal/mol.

In the case of TGATCCACGTGGGATG, the “relative binding free energy” value is -0.07 kcal/mol.

With GGCGGCACGTGTCAGG, the “relative binding free energy” value is -0.14 kcal/mol.

Regarding GGAGTCACGTGTTTCT, the “relative binding free energy” value stood at 0.16 kcal/mol.

For the sequence ATCATCACGTGTGTTA, the “relative binding free energy” value was 0 kcal/mol.

On to ATTAGCACGTGTTAGA, for which the “relative binding free energy” value is -0.11 kcal/mol.

Turning to TAGAGCACGTGTGATA, the “relative binding free energy” value is -0.09 kcal/mol.

Consider AATTTCACGTGGGGGC, for which the “relative binding free energy” value is 0.16 kcal/mol.

Turning to ACGTACACGTGTGAGG, the “relative binding free energy” value was determined as 0.11 kcal/mol.

As for GGCTTCACGTGGGTTG, the “relative binding free energy” value came to 0.16 kcal/mol.

Turning to TTGTACACGTGTGTTG, the “relative binding free energy” value was 0.12 kcal/mol.

On to TAGGACACGTGGTCTG, for which the “relative binding free energy” value was -0.07 kcal/mol.

Turning to TTCAGCACGTGGATTT, the “relative binding free energy” value was -0.1 kcal/mol.

For the sequence TCGGTCACGTGGTCAG, the “relative binding free energy” value was determined as 0.08 kcal/mol.

As for AGTAGCACGTGGGATG, the “relative binding free energy” value was -0.17 kcal/mol.

Consider CGTTACACGTGGGGAT, for which the “relative binding free energy” value was -0.16 kcal/mol.

With TGGGGCACGTGATGAC, the “relative binding free energy” value was found to be 0.16 kcal/mol.

GGGGGCACGTGGCTGC: the “relative binding free energy” value was -0.05 kcal/mol.

For GTTGACACGTGTGTGG, the “relative binding free energy” value stood at 0.11 kcal/mol.

Turning to TTTATCACGTGTTTAA, the “relative binding free energy” value came to 0.23 kcal/mol.

As for TGTTTCACGTGTAGCC, the “relative binding free energy” value is 0.37 kcal/mol.

Consider TTAATCACGTGAATTG, for which the “relative binding free energy” value amounted to 0.27 kcal/mol.

For the sequence TTACGCACGTGAGGGA, the “relative binding free energy” value came to 0.17 kcal/mol.

With TGTATCACGTGATTCA, the “relative binding free energy” value came out at 0.24 kcal/mol.

On to TGGGTCACGTGTAGCG, for which the “relative binding free energy” value amounted to 0.13 kcal/mol.

In the case of CGGGTCACGTGTAAAT, the “relative binding free energy” value turned out to be 0.21 kcal/mol.

Take ATTGGCACGTGGGATC: the “relative binding free energy” value is -0.24 kcal/mol.

Take CGGGTCACGTGAGTAG: the “relative binding free energy” value was determined as 0 kcal/mol.

In the case of GGGTTCACGTGTAGAT, the “relative binding free energy” value is 0.44 kcal/mol.

In the case of TTGGACACGTGCGGCT, the “relative binding free energy” value was -0.07 kcal/mol.

For the sequence CGGTCCACGTGTTTGT, the “relative binding free energy” value was -0.04 kcal/mol.

Take TGTTACACGTGTTTCC: the “relative binding free energy” value stood at 0.16 kcal/mol.

TGTGGCACGTGGCTCA: the “relative binding free energy” value is -0.07 kcal/mol.

As for CTCAACACGTGGGGGT, the “relative binding free energy” value was -0.01 kcal/mol.

Turning to AGGTTCACGTGCGATG, the “relative binding free energy” value was 0.13 kcal/mol.

For the sequence TCGTGCACGTGGGTAT, the “relative binding free energy” value is -0.07 kcal/mol.

Turning to TTATTCACGTGGGCAG, the “relative binding free energy” value was 0.11 kcal/mol.

As to CTGTTCACGTGTGGGA, the “relative binding free energy” value was found to be 0.16 kcal/mol.

GTGAGCACGTGCGTGA: the “relative binding free energy” value is -0.23 kcal/mol.

In the case of ATGATCACGTGTGCTT, the “relative binding free energy” value was 0.13 kcal/mol.

On to GATTGCACGTGGGGCG, for which the “relative binding free energy” value was found to be 0.03 kcal/mol.

With TACGTCACGTGAAAGT, the “relative binding free energy” value was 0.31 kcal/mol.

Regarding TCTGTCACGTGTTGCT, the “relative binding free energy” value turned out to be 0.27 kcal/mol.

Consider CGTGGCACGTGGCTAG, for which the “relative binding free energy” value is -0.17 kcal/mol.

Take AGAGACACGTGTAGGT: the “relative binding free energy” value came to 0.13 kcal/mol.

Consider TGGGTCACGTGGCGCA, for which the “relative binding free energy” value is -0.07 kcal/mol.

Regarding GGTACCACGTGAGTTG, the “relative binding free energy” value amounted to 0.22 kcal/mol.

As for AGTTGCACGTGTGTTC, the “relative binding free energy” value is 0.05 kcal/mol.

Turning to TAATTCACGTGCGATT, the “relative binding free energy” value came to 0.16 kcal/mol.

With TTGTACACGTGATTGT, the “relative binding free energy” value came out at 0.25 kcal/mol.

With CGGTCCACGTGGGTTT, the “relative binding free energy” value is -0.06 kcal/mol.

TCGGCCACGTGGGGTA: the “relative binding free energy” value is -0.27 kcal/mol.

Regarding GTTAACACGTGAGGCG, the “relative binding free energy” value was 0.28 kcal/mol.

Consider AGGTGCACGTGATATT, for which the “relative binding free energy” value amounted to 0 kcal/mol.

TTAGACACGTGGTGGT: the “relative binding free energy” value is -0.11 kcal/mol.

In the case of TGGGGCACGTGTCGAA, the “relative binding free energy” value is -0.09 kcal/mol.

On to TCGAGCACGTGTTATT, for which the “relative binding free energy” value is -0.02 kcal/mol.

On to GTTGACACGTGATTTC, for which the “relative binding free energy” value came out at 0.33 kcal/mol.

As for TTTCGCACGTGCCGGG, the “relative binding free energy” value was -0.04 kcal/mol.

On to ATTTACACGTGGGGGC, for which the “relative binding free energy” value is -0.03 kcal/mol.

Regarding GTTCGCACGTGTGTAA, the “relative binding free energy” value amounted to 0.06 kcal/mol.

Turning to ATGTACACGTGCTTGT, the “relative binding free energy” value was -0.14 kcal/mol.

For the sequence TAGGGCACGTGCAGGA, the “relative binding free energy” value was -0.23 kcal/mol.

Turning to GGTTTCACGTGTGCCG, the “relative binding free energy” value stood at 0.31 kcal/mol.

Consider TTTTACACGTGAGTCT, for which the “relative binding free energy” value was determined as 0.33 kcal/mol.

Regarding ATGGGCACGTGGCAGC, the “relative binding free energy” value is -0.2 kcal/mol.

On to CGGATCACGTGTATGT, for which the “relative binding free energy” value came to 0.24 kcal/mol.

For CCGTGCACGTGGTGGA, the “relative binding free energy” value is -0.07 kcal/mol.

On to GGCGGCACGTGTGCGC, for which the “relative binding free energy” value turned out to be 0.07 kcal/mol.

With CATATCACGTGTTGGG, the “relative binding free energy” value was found to be 0.14 kcal/mol.

On to CGTGACACGTGTCGTG, for which the “relative binding free energy” value was determined as 0 kcal/mol.

For the sequence CTATGCACGTGTTTTA, the “relative binding free energy” value was -0.08 kcal/mol.

Turning to TTCGTCACGTGTGGTC, the “relative binding free energy” value was found to be 0.11 kcal/mol.

Take GTGGGCACGTGGTTGC: the “relative binding free energy” value was -0.09 kcal/mol.

On to AGGGTCACGTGTAAGT, for which the “relative binding free energy” value was 0.05 kcal/mol.

Regarding CAGGGCACGTGGTAGC, the “relative binding free energy” value was -0.23 kcal/mol.

On to GTCAACACGTGGTATT, for which the “relative binding free energy” value came out at 0.19 kcal/mol.

For TAATTCACGTGAATTA, the “relative binding free energy” value stood at 0.36 kcal/mol.

Take TGTGTCACGTGGTCCG: the “relative binding free energy” value stood at 0.09 kcal/mol.

Take CGGAACACGTGTTAGT: the “relative binding free energy” value was 0.23 kcal/mol.

On to GATGTCACGTGTTCAG, for which the “relative binding free energy” value amounted to 0.2 kcal/mol.

GTTTGCACGTGTTCTG: the “relative binding free energy” value was determined as 0.11 kcal/mol.

With TGTATCACGTGAAATG, the “relative binding free energy” value was determined as 0.33 kcal/mol.

As to TTCGGCACGTGGGCGA, the “relative binding free energy” value is -0.18 kcal/mol.

With CGAGACACGTGTGTTT, the “relative binding free energy” value was 0.19 kcal/mol.

Take AGAGGCACGTGGTTCG: the “relative binding free energy” value is -0.34 kcal/mol.

Consider GCGGTCACGTGTGATG, for which the “relative binding free energy” value came to 0.09 kcal/mol.

CGGGTCACGTGGAGGG: the “relative binding free energy” value was 0.11 kcal/mol.

Take AGGATCACGTGTCGGC: the “relative binding free energy” value was 0.23 kcal/mol.

Regarding GACTGCACGTGGGGCT, the “relative binding free energy” value was -0.05 kcal/mol.

GATGTCACGTGAAATG: the “relative binding free energy” value was 0.28 kcal/mol.
